{"source": "the RNAGym collection of RNA variant scans (doi:10.1093/nar/gkz1192)", "parents": {"B1": {"name": "CPEB3 Ribozyme (parent)", "chain": "UAACAGGGGGCCACAGCAGAAGCGUUCACGUCGCAGCCCCUGUCAGAUUCUGGUGAAUCUGCGAAUUCUGCUGUAUAUCUC"}}, "note": "Read counts are not given, so values of variants with three or more changes are uncertain."}
{"variants_of": "B1", "assay": "self-cleavage, relative activity (ratio to wild type); higher = more cleavage; in vitro, sequencing", "procedure,_shortened": "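CPEB3 self-cleaving ribozyme mutant libraries were made by rounds of error-prone PCR, barcoded, and transcribed in vitro with T7 RNA polymerase for 5 hours at 37°C. Cleavage occurred during transcription and a 15 min DNase I step before EDTA stop. RNAs were reverse transcribed with template switching and Illumina-sequenced, with DNA sequencing mapping barcodes to variants. Relative activity is the variant's cleaved/total read fraction divided by wild type's (minimum 5 reads), averaged across three batches.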"}
{"variant": "A20U U49A U69C", "self-cleavage": 0.05}
{"variant": "A21C C50A A56U U66C C68U A75U", "self-cleavage": 0.04}
{"variant": "A20U C32A U41C U49A", "self-cleavage": 0.17}
{"variant": "A20U A45U U54G", "self-cleavage": 0.19}
{"variant": "A20U C37A U51A U80A", "self-cleavage": 0.07}
{"variant": "A21C U51C G63A U78A", "self-cleavage": 0.06}
{"variant": "A21C C44U U60C U74C", "self-cleavage": 0.16}
{"variant": "A20U A35G A45G A56G U80C", "self-cleavage": 0.7}
{"variant": "A21G A45G A64G U76C", "self-cleavage": 0.36}
{"variant": "A20U U31C A35C", "self-cleavage": 0.21}
{"variant": "A20U C34G U41C A47U A56G U60A", "self-cleavage": 0.07}
{"variant": "A20U U31C U76G", "self-cleavage": 0.13}
{"variant": "A21G A35U U54C U78C", "self-cleavage": 0.15}
{"variant": "A20U U41C A57G U66C", "self-cleavage": 0.18}
{"variant": "A20U G42A C71G", "self-cleavage": 0.06}
{"variant": "A20U U41A A57G G70C", "self-cleavage": 0.1}
{"variant": "A20U U26A U78C", "self-cleavage": 0.15}
{"variant": "A21C U25A U26C C40U A47G A56U U67C", "self-cleavage": 0.06}
{"variant": "A21C U26A U43C A56U A77G U80C", "self-cleavage": 0.05}
{"variant": "A20U U31C A56U U72A U80C", "self-cleavage": 0.07}
{"variant": "A20U A35U U66G U69A", "self-cleavage": 0.09}
{"variant": "A20U U51G U67C U78C", "self-cleavage": 0.12}
{"variant": "A20U G22C C40A G63U U74C", "self-cleavage": 0.32}
{"variant": "A20U G42U U43C G53A", "self-cleavage": 0.25}
{"variant": "A20U A35G A45U U49C U60C A64G G70C", "self-cleavage": 0.04}
{"variant": "A20U U54C A65G", "self-cleavage": 0.13}
{"variant": "A21G A28G U51C U54A A57G U60C U67A", "self-cleavage": 0.04}
{"variant": "A21G A28G U43C U60C", "self-cleavage": 0.11}
{"variant": "A20U A28C A45C A65G U78C", "self-cleavage": 0.15}
{"variant": "A21C U43C A65U U76C", "self-cleavage": 0.06}
{"variant": "A20U U66C U80C", "self-cleavage": 0.23}
{"variant": "A21G A45G U51A A57G U58A U69C", "self-cleavage": 0.15}
{"variant": "A20U A45U A56U U60A U66C", "self-cleavage": 0.13}
{"variant": "A21C U41C U51A U54A U67C", "self-cleavage": 0.1}
{"variant": "A20U C38U U48C U60A U74C", "self-cleavage": 0.08}
{"variant": "A20U U31C U51C U69A G73A", "self-cleavage": 0.17}
{"variant": "A21G A28U U43C U72C U78C U80C", "self-cleavage": 0.11}
{"variant": "A21G A35G U41G A57G U74A", "self-cleavage": 0.07}
{"variant": "A20U A45G A47G C71U", "self-cleavage": 0.07}
{"variant": "A20U U49A U80A", "self-cleavage": 0.23}
{"variant": "A21C U48C A56U U60C A75C C79G", "self-cleavage": 0.07}
{"variant": "A20U C34U A56U A64G", "self-cleavage": 0.08}
{"variant": "A21G A35G C40U U49A U72A U74C", "self-cleavage": 0.32}
{"variant": "A20U A65G U66C U78C", "self-cleavage": 0.12}
{"variant": "A20U U31C U41A U72A", "self-cleavage": 0.06}
{"variant": "A20U U41C A45G U74C", "self-cleavage": 0.22}
{"variant": "A21C U26C G33A U41C", "self-cleavage": 0.14}
{"variant": "A21G A28G U54A", "self-cleavage": 0.23}
{"variant": "A20U G24A A57G", "self-cleavage": 0.11}
{"variant": "A21G A35G A45G U49C U74A", "self-cleavage": 0.19}
{"variant": "A21G A28G U51C U54A", "self-cleavage": 0.35}
{"variant": "A20U U72A U80C", "self-cleavage": 0.37}
{"variant": "A20G U69C U80C", "self-cleavage": 0.41}
{"variant": "A20U C40A U60A A64U", "self-cleavage": 0.13}
{"variant": "A20U A21G C32A", "self-cleavage": 0.03}
{"variant": "A20U G24A U41C A57G", "self-cleavage": 0.07}
{"variant": "A20U A45U U51C A56G U69C U80C", "self-cleavage": 0}
{"variant": "A21G A45G U74A", "self-cleavage": 0.96}
{"variant": "A21G A35G U41G C44G A56G U80A", "self-cleavage": 0.04}
{"variant": "A21G A35U U51C", "self-cleavage": 0.09}
{"variant": "A21G A28C U80C", "self-cleavage": 0.42}
{"variant": "A20U G33A U69C", "self-cleavage": 0.31}
{"variant": "A20U U41A C62G U74G", "self-cleavage": 0.13}
{"variant": "A20G U67C U69C", "self-cleavage": 0.31}
{"variant": "A21G A28U U49C A77G", "self-cleavage": 0.33}
{"variant": "A20U U48C U66C U72C A77C U80C", "self-cleavage": 0.09}
{"variant": "A20U G52C A64G U74A U80C", "self-cleavage": 0.39}
{"variant": "A20U A28G U66A U72A U74A", "self-cleavage": 0.04}
{"variant": "A20U G55U U60A A77U", "self-cleavage": 0.22}
{"variant": "A21G A28G U31C A56U A65G", "self-cleavage": 0.12}
{"variant": "A21G A45G A57G", "self-cleavage": 0.31}
{"variant": "A20U A21G C27U", "self-cleavage": 0.1}
{"variant": "A20U U41C U49C A56G A64G U72C U78C", "self-cleavage": 0}
{"variant": "A20U A28U U49C U54A A57G", "self-cleavage": 0.22}
{"variant": "A20U A21G C23A C29U C39A U80C", "self-cleavage": 0.06}
{"variant": "A20U A45G A57G A75U U78C", "self-cleavage": 0.27}
{"variant": "A21G A28G U54C A64G", "self-cleavage": 0.1}
{"variant": "A20U U25C U48C", "self-cleavage": 0.1}
{"variant": "A21G A45G G55C U58A A64G", "self-cleavage": 0.07}
{"variant": "A20U A45G G52C G61U G73A A75U A77G", "self-cleavage": 0.15}
{"variant": "A21G A28G U49C", "self-cleavage": 0.13}
{"variant": "A21G A28G C32U G36U", "self-cleavage": 0.13}
{"variant": "A20U U26C U41A U76C", "self-cleavage": 0.16}
{"variant": "A20U A21C U41A A56G", "self-cleavage": 0.32}
